According to PubChem BioAssay AID1745845 (National Center for Advancing Translational Sciences (NCATS), 2022):
In all, about 360,000 compounds went through this assay and about 2,600 (0.72%) were called active. Inconclusive means that the source gave no clear call. Such entries were picked first, then a sample of the others. Calls follow the shape of the dose curve; as a rule, active = well fitted inhibition curve with a large enough effect; inconclusive = small, poorly fitted or top-dose-only effect; inactive = no such curve, though single readings can be large or run the other way. Where the call is inconclusive, the potency comes from a doubtful curve fit.

Assay: Primary qHTS for Inhibitors of ATXN expression; also: nearly all actives have a fitted effect of over 55% in size
Conditions: HEK-293 ATXN2-luciferase reporter, luminescence, 24 h; activity change, negative = inhibition: at 57 µM (top of the series)
In short: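 qHTS (up to 57 uM final) was run with 24 h compound exposure of reporter cells at 37 °C. Each well was multiplexed: SteadyGlo luminescence measured ATXN2-luciferase expression after a fluorogenic Gly-Phe-AFC viability readout (25 uM final).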
% is scaled to controls: 0 for no effect and ±100 for the full control effect; potency is read from the fitted curve at half-maximal effect; tags tell the direction and shape of the fitted curve.

Row | SMILES | Potency | activity change, negative = inhibition
1 | COC(=O)c1ccc(NC(=O)CCn2cccn2)cc1 | inactive | –
2 | CCN(CC)S(=O)(=O)c1ccc2oc(C(=O)NCCCN3CCOCC3)c(C)c2c1 | inactive | –
3 | OCCC1CN(Cc2ccc(Oc3ncccn3)cc2)CCN1Cc1ccc(F)c(F)c1 (stereo unspecified) | inactive | –
4 | O=C(Nc1cccnc1)N1CCC(Cc2cccc(Oc3ccc(C(F)(F)F)cn3)c2)CC1 | inconclusive: 21.7 µM [inhibitor, single point] | –
5 | O=C(COc1nnnc2ccccc12)N1CCCc2ccccc21 | inactive | –
6 | S=C(NC1CCCCC1)N1CCOCCOCCN(C(=S)NC2CCCCC2)CCOCCOCC1 | inconclusive: 18.9 µM [inhibitor, partial curve, poor fit] | –
7 | O=C(Nc1ccccc1)C1=C[C@H](c2ccc(Br)cc2)C[C@H](OCc2ccc(CO)cc2)O1 | inactive | –
8 | CCN(CC)CCCNC(=O)CN1C(=O)CSc2ccc(S(=O)(=O)N3CCOCC3)cc21 | inactive | –
9 | O=C(Nc1cccc(Oc2ccccc2)c1)C1Cc2c(-c3ccco3)ccnc2O1 (stereo unspecified) | inactive | –
10 | OC(COc1ccc(Cl)cc1)CN1CCC(Cc2ccccc2)CC1 (stereo unspecified) | inconclusive: 20 µM [inhibitor, partial curve, poor fit] | –
11 | CO[C@@]12[C@@H]3N[C@@H]3CN1C1=C(C(=O)C(N)=C(C)C1=O)[C@@H]2COC(N)=O | active: 1.26 µM | –
12 | CN(C)N=Nc1nc[nH]c1C(N)=O | inconclusive: 15.3 µM [inhibitor, single point] | –
13 | Cc1[nH]c(C)c(S(=O)(=O)Nc2ccccc2)c1C(=O)N1CCCC1 | inactive | –
14 | Oc1c(C(c2ccccn2)N2CCCCC2)cc(Cl)c2cccnc12 (stereo unspecified) | inconclusive: 28.2 µM [inhibitor, single point] | –
15 | Cc1nc(N2CCN(C(=O)c3ccco3)CC2)c2oc3ccccc3c2n1 | inconclusive: 28.2 µM [inhibitor, partial curve, poor fit] | –
16 | N#Cc1cccc(NC(=O)CNc2cccc(S(=O)(=O)N3CCCC3)c2)c1 | inconclusive: 14.1 µM [inhibitor, partial curve, poor fit] | –
17 | OCCNCc1ccc(-c2ccccc2)cc1 | inconclusive: 39.8 µM [inhibitor, partial curve, poor fit] | –
18 | CS(=O)(=O)N(CC(=O)N/N=C/c1cc([N+](=O)[O-])ccc1Cl)c1ccccc1 | inactive | –
19 | CCOc1ccccc1C(=O)N1CCN(c2ccc(C(F)(F)F)cn2)CC1 | inconclusive: 22.4 µM [inhibitor, single point] | –
20 | CN(Cc1ccccc1)c1ccc(C(CC(N)=O)NC(=O)Cc2ccc(Br)cc2)cc1[N+](=O)[O-] (stereo unspecified) | inconclusive: 39.8 µM [inhibitor, single point] | –
21 | CCOC(=O)c1c(CSc2ccc(CC)cc2)oc2ccc(O)c(CN(C)C)c12 | active: 15.8 µM | –

Row | SMILES | Potency | activity change, negative = inhibition
22 | CCOC1OC(=O)C(Cl)=C1Nc1cc(C)ccc1C (stereo unspecified) | – | inactive: -13.8% [at 11.3 µM]
23 | CC1CN(CC(O)COC(c2ccc(Cl)cc2)c2ccc(Cl)cc2)CC(C)O1 (stereo unspecified) | inconclusive: 11.2 µM [inhibitor, partial curve, poor fit] | –
24 | CCOc1cc(N2CCOCC2)c(OCC)cc1NC(=O)[C@H](C)NC(=O)c1ccco1 | inactive | –
25 | COc1cc(/C=C/c2nc3ccccc3c(=O)[nH]2)ccc1OC(F)F | inactive | –
26 | CCn1c(C)c(/C=N/Nc2nc3ccccc3s2)c2ccccc21 | inactive | –
27 | CC(C)(C)OC(=O)NC1CC2CCCC(C1)N2Cc1ccccc1 (stereo unspecified) | inactive | –
28 | COc1ccc(-c2cnc3c(NC=O)cc(-c4cccc(NS(C)(=O)=O)c4)cn23)cc1OC | inconclusive: 17.8 µM [inhibitor, partial curve] | –
29 | C=C(NC(=O)C(=C)NC(=O)c1csc(C2=NC3c4csc(n4)C4NC(=O)c5csc(n5)C(C(C)(O)C(C)O)NC(=O)C5CSC(=N5)/C(=C/C)NC(=O)C(C(C)O)NC(=O)c5csc(n5)C3(CC2)NC(=O)C(C)NC(=O)C(=C)NC(=O)C(=C)NC(=O)C(C(C)C)NC2C=Cc3c(C(C)O)cc(nc3C2O)C(=O)OC4C)n1)C(N)=O (stereo unspecified) | inconclusive: 6.7 µM [inhibitor, full curve, poor fit] | –
30 | CSc1nc(N)nc2c1ncn2CC(=O)NCc1ccc2[nH]ccc2c1 | inconclusive: 25.1 µM [inhibitor, partial curve, poor fit] | –
31 | CCC(C)NC(=O)CSc1nnc(-c2cc(-c3ccc(C)cc3)nc3ccccc23)n1N (stereo unspecified) | inactive | –
32 | Cc1ccc(C2=NOC(=O)/C2=C\C=C\c2ccccc2)cc1 | inconclusive: 10.6 µM [inhibitor, partial curve, poor fit] | –
33 | C[C@@H]1CN([C@H](C)CO)S(=O)(=O)c2ccc(C#Cc3ccccc3)cc2O[C@H]1CN(C)C(=O)Nc1ccc2c(c1)OCO2 | inconclusive: 20 µM [inhibitor, single point] | –
34 | COc1cc2c(C(=O)N3CCOCC3)c(CSc3ccccc3)n(C)c2cc1Br | inconclusive: 39.8 µM [inhibitor, single point] | –
35 | N#Cc1ccc(NC(=O)Nc2ccc(Oc3ccc(NC(=O)Nc4ccc(C#N)cc4)cc3)cc2)cc1 | inconclusive: 15.8 µM [inhibitor, partial curve, poor fit] | –
36 | CCOc1ccc(-n2c(SCc3ccc([N+](=O)[O-])cc3)nnc2-c2ccccc2)cc1 | inconclusive: 35.5 µM [inhibitor, single point] | –
37 | Cc1cc(C)cc(OCC(=O)N/N=C/c2ccc([N+](=O)[O-])o2)c1 | inconclusive: 37.7 µM [inhibitor, single point] | –
38 | CCOc1ccc(C(=O)Nc2ccc(NC(=O)c3ccco3)c(Cl)c2)cc1Cl | inconclusive: 22.4 µM [inhibitor, partial curve, poor fit] | –
39 | Cc1ccnc(NC(=O)CCCc2c[nH]c3ccccc23)c1 | inconclusive: 14.1 µM [inhibitor, partial curve] | –
40 | O=C(COc1ccc(Cl)cc1Cl)N1CCCN(C(=O)COc2ccc(Cl)cc2Cl)CC1 | inconclusive: 22.4 µM [inhibitor, partial curve, poor fit] | –
41 | Cc1ccccc1NC(=O)CSc1cn(CC(=O)N2CCCC2)c2ccccc12 | inactive | –
